The values that follow come from patent publication US20170107179A1 (Tetraphase Pharmaceuticals, Inc., priority 2010, published 2017).

The subject of one experiment is Klebsiella pneumoniae KP109 (ATCC 13883). Put plainly: Minimum Inhibitory Concentration (MIC) assay, CLSI broth dilution. The arrangement: key: A = lower than or equal to lowest MIC among three control compounds; B = greater than lowest MIC among three control compounds, but lower than highest MIC among three control compounds; C = greater than MIC of all three control compounds. The note with it: class vs MICs of sancycline, minocycline, tigecycline. As to the method:
(§1) Briefly, frozen bacterial strains were thawed and subcultured onto Mueller Hinton Broth (MHB) or other appropriate media (Streptococcus requires blood and Haemophilus requires hemin and NAD). Following incubation overnight, the strains were subcultured onto Mueller Hinton Agar and again incubated overnight. […] Isolated colonies were selected to prepare a starting inoculum equivalent to a 0.5 McFarland standard. The starting inoculum was diluted 1:125 (this is the working inoculum) using MHB for further use. […] .
(§2) The assays were run as follows. Fifty μL of MHB was added to wells 2-12 of a 96-well plate. One hundred μL of appropriately diluted antibiotics was added to well 1. Fifty μL of antibiotics was removed from well 1 and added to well 2 and the contents of well 2 mixed by pipetting up and down five times. Fifty μL of the mixture in well 2 was removed and added to well 3 and mixed as above. Serial dilutions were continued in the same manner through well 12. Fifty μL was removed from well 12 so that all contained 50 μL. Fifty μL of the working inoculum was then added to all test wells. A growth control well was prepared by adding 50 μL of working inoculum and 50 μL of MHB to an empty well. The plates were then incubated at 37° C. overnight, removed from the incubator and each well was read on a plate reading mirror. The lowest concentration (MIC) of test compound that inhibited the growth of the bacteria was recorded.
(§3) The following bacterial strains, listed below, were examined in minimum inhibitory concentration (MIC) assays.
As to `CN(C)[C@@H]1C(O)=C(C(N)=O)C(=O)[C@@]2(O)C(O)=C3C(=O)c4c(O)c5c(c(F)c4C[C@H]3C[C@@H]12)CCN(CC(C)(C)C)C5` [Compound 201], the “MIC KP109 13883” value was “B”. Regarding `CN(C)[C@@H]1C(O)=C(C(N)=O)C(=O)[C@@]2(O)C(O)=C3C(=O)c4c(O)c5c(c(F)c4C[C@H]3C[C@@H]12)CCN(C1CCCC1)C5` [Compound 202], the “MIC KP109 13883” value was “B”.

The next experiment concerns Pseudomonas aeruginosa PA173 (PA170 ΔmexX). The description is as above. Conditions: compared to Sancycline, Minocycline and Tigecycline. The arrangement: key: A = lower than or equal to lowest MIC among three control compounds; B = greater than lowest MIC among three control compounds, but lower than highest MIC among three control compounds; C = greater than MIC of all three control compounds. On the procedure: as §1, §2, §3
`CN(C)[C@@H]1C(O)=C(C(N)=O)C(=O)[C@@]2(O)C(O)=C3C(=O)c4c(O)c5c(c(C(F)(F)F)c4C[C@H]3C[C@@H]12)CN(C(C)(C)C)C5` [Compound 112]: the “MIC PA173” value was “B”.

For `CC[C@H](C)N1Cc2c(O)c3c(c(C(F)(F)F)c2C1)C[C@H]1C[C@H]2[C@H](N(C)C)C(O)=C(C(N)=O)C(=O)[C@@]2(O)C(O)=C1C3=O` [Compound 113], the “MIC PA173” value is on record as “B”.

In the case of `CN(C)[C@@H]1C(O)=C(C(N)=O)C(=O)[C@@]2(O)C(O)=C3C(=O)c4c(O)c5c(c(F)c4C[C@H]3C[C@@H]12)CN(C1CC1)C5` [Compound 114], the “MIC PA173” value is reported as “B”. The same measure, in the same setting: then `CN(C)c1c2c(c(O)c3c1C[C@H]1C[C@H]4[C@H](N(C)C)C(O)=C(C(N)=O)C(=O)[C@@]4(O)C(O)=C1C3=O)CN(C(C)(C)C)C2` [Compound 115], with “B”; and `CN(C)[C@@H]1C(O)=C(C(N)=O)C(=O)[C@@]2(O)C(O)=C3C(=O)c4c(O)c5c(c(C(F)(F)F)c4C[C@H]3C[C@@H]12)CN(C1CC1)C5` [Compound 116], with “B”. With `CCC(C)(C)N1Cc2c(O)c3c(c(OC)c2C1)C[C@H]1C[C@H]2[C@H](N(C)C)C(O)=C(C(N)=O)C(=O)[C@@]2(O)C(O)=C1C3=O` [Compound 119], the “MIC PA173” value is listed as “B”. For the compound `CN(C)[C@@H]1C(O)=C(C(N)=O)C(=O)[C@@]2(O)C(O)=C3C(=O)c4c(O)c5c(c(F)c4C[C@H]3C[C@@H]12)CN(C(C)(C)CF)C5` [Compound 122], the “MIC PA173” value was “B”. Consider `CC(C)N1Cc2c(O)c3c(c(C(F)(F)F)c2C1)C[C@H]1C[C@H]2[C@H](N(C)C)C(O)=C(C(N)=O)C(=O)[C@@]2(O)C(O)=C1C3=O` [Compound 126], for which the “MIC PA173” value is on record as “B”. Still for that read-out and setting: in the case of `CC[C@@H](C)N1Cc2c(O)c3c(c(C(F)(F)F)c2C1)C[C@H]1C[C@H]2[C@H](N(C)C)C(O)=C(C(N)=O)C(=O)[C@@]2(O)C(O)=C1C3=O` [Compound 128] it was “B”. With `CN(C)[C@@H]1C(O)=C(C(N)=O)C(=O)[C@@]2(O)C(O)=C3C(=O)c4c(O)c5c(c(F)c4C[C@H]3C[C@@H]12)CN(C1CCC1)C5` [Compound 132], the “MIC PA173” value is reported as “B”.

As for `CCCN1Cc2c(O)c3c(c(OC)c2C1)C[C@H]1C[C@H]2[C@H](N(C)C)C(O)=C(C(N)=O)C(=O)[C@@]2(O)C(O)=C1C3=O` [Compound 138], the “MIC PA173” value is listed as “B”. Still for that read-out and setting: in the case of `CCCN1Cc2c(O)c3c(c(C(F)(F)F)c2C1)C[C@H]1C[C@H]2[C@H](N(C)C)C(O)=C(C(N)=O)C(=O)[C@@]2(O)C(O)=C1C3=O` [Compound 141] it was “B”; in that of `CC[C@@H](C)N1Cc2c(O)c3c(c(OC)c2C1)C[C@H]1C[C@H]2[C@H](N(C)C)C(O)=C(C(N)=O)C(=O)[C@@]2(O)C(O)=C1C3=O` [Compound 145], “B”. With `CC[C@H](C)N1Cc2c(O)c3c(c(OC)c2C1)C[C@H]1C[C@H]2[C@H](N(C)C)C(O)=C(C(N)=O)C(=O)[C@@]2(O)C(O)=C1C3=O` [Compound 148], the “MIC PA173” value is reported as “B”. As for `CC(C)N1CCc2c(O)c3c(c(F)c2C1)C[C@H]1C[C@H]2[C@H](N(C)C)C(O)=C(C(N)=O)C(=O)[C@@]2(O)C(O)=C1C3=O` [Compound 300], the “MIC PA173” value was “B”.

With `CCC(C)N1CCc2c(O)c3c(c(F)c2C1)C[C@H]1C[C@H]2[C@H](N(C)C)C(O)=C(C(N)=O)C(=O)[C@@]2(O)C(O)=C1C3=O` (some centres unmarked) [Compound 301], the “MIC PA173” value is given as “B”. On the same count and under the same terms, in the case of `CC[C@@H](C)N1CCc2c(O)c3c(c(F)c2C1)C[C@H]1C[C@H]2[C@H](N(C)C)C(O)=C(C(N)=O)C(=O)[C@@]2(O)C(O)=C1C3=O` [Compound 302] it was “B”; in that of `CN(C)[C@@H]1C(O)=C(C(N)=O)C(=O)[C@@]2(O)C(O)=C3C(=O)c4c(O)c5c(c(F)c4C[C@H]3C[C@@H]12)CN(CC(C)(C)C)CC5` [Compound 303], “B”.

As for `CCCN1CCc2c(O)c3c(c(F)c2C1)C[C@H]1C[C@H]2[C@H](N(C)C)C(O)=C(C(N)=O)C(=O)[C@@]2(O)C(O)=C1C3=O` [Compound 304], the “MIC PA173” value is listed as “B”. Still for that read-out and setting: then `CC[C@H](C)N1CCc2c(O)c3c(c(F)c2C1)C[C@H]1C[C@H]2[C@H](N(C)C)C(O)=C(C(N)=O)C(=O)[C@@]2(O)C(O)=C1C3=O` [Compound 305], with “B”. On the same count and under the same terms, then `CC(C)CN1CCc2c(O)c3c(c(F)c2C1)C[C@H]1C[C@H]2[C@H](N(C)C)C(O)=C(C(N)=O)C(=O)[C@@]2(O)C(O)=C1C3=O` [Compound 306], with “B”; and `CCN1CCc2c(O)c3c(c(F)c2C1)C[C@H]1C[C@H]2[C@H](N(C)C)C(O)=C(C(N)=O)C(=O)[C@@]2(O)C(O)=C1C3=O` [Compound 307], with “B”. Still for that read-out and setting: in the case of `CN(C)[C@@H]1C(O)=C(C(N)=O)C(=O)[C@@]2(O)C(O)=C3C(=O)c4c(O)c5c(c(F)c4C[C@H]3C[C@@H]12)CN(C(C)(C)C)CC5` [Compound 308] it was “B”; in that of `CN(C)[C@@H]1C(O)=C(C(N)=O)C(=O)[C@@]2(O)C(O)=C3C(=O)c4c(O)c5c(c(F)c4C[C@H]3C[C@@H]12)CN1CCC[C@@H]1C(=O)N5` [Compound 405], “B”. As for `C[C@@H]1C(=O)Nc2c(O)c3c(c(F)c2CN1C)C[C@H]1C[C@H]2[C@H](N(C)C)C(O)=C(C(N)=O)C(=O)[C@@]2(O)C(O)=C1C3=O` [Compound 406], the “MIC PA173” value was “B”.

Take `CC(C)C[C@@H]1CNc2c(O)c3c(c(F)c2CN1)C[C@H]1C[C@H]2[C@H](N(C)C)C(O)=C(C(N)=O)C(=O)[C@@]2(O)C(O)=C1C3=O` [Compound 408]: the “MIC PA173” value is given as “B”. For the compound `CN(C)[C@@H]1C(O)=C(C(N)=O)C(=O)[C@@]2(O)C(O)=C3C(=O)c4c(O)c5c(c(F)c4C[C@H]3C[C@@H]12)CN1CCC[C@H]1C(=O)N5` [Compound 412], the “MIC PA173” value is “B”. On to `CN(C)[C@@H]1C(O)=C(C(N)=O)C(=O)[C@@]2(O)C(O)=C3C(=O)c4c(O)c5c(c(F)c4C[C@H]3C[C@@H]12)CN(C(C)(C)C)CC(=O)N5` [Compound 421], for which the “MIC PA173” value was “B”. On the same count and under the same terms, then `CN(C)[C@@H]1C(O)=C(C(N)=O)C(=O)[C@@]2(O)C(O)=C3C(=O)c4c(O)c5c(c(F)c4C[C@H]3C[C@@H]12)CN(C)[C@@H](CO)C(=O)N5` [Compound 423], with “B”; and `CN(C)[C@@H]1C(O)=C(C(N)=O)C(=O)[C@@]2(O)C(O)=C3C(=O)c4c(O)c5c(c(F)c4C[C@H]3C[C@@H]12)CN(C)[C@@H](Cc1ccccc1)C(=O)N5` [Compound 424], with “B”. With `CCCN1Cc2c(F)c3c(c(O)c2NC[C@H]1CC(C)C)C(=O)C1=C(O)[C@]2(O)C(=O)C(C(N)=O)=C(O)[C@@H](N(C)C)[C@@H]2C[C@@H]1C3` [Compound 427], the “MIC PA173” value was “B”.

Consider `CC(C)C[C@@H]1CNc2c(O)c3c(c(F)c2CN1C)C[C@H]1C[C@H]2[C@H](N(C)C)C(O)=C(C(N)=O)C(=O)[C@@]2(O)C(O)=C1C3=O` [Compound 429], for which the “MIC PA173” value was “B”.

A further experiment has as its system Klebsiella pneumoniae KP457 (2009 ESBL+, CTX-M, OXA). The description is as above. The arrangement: key: A = lower than or equal to lowest MIC among three control compounds; B = greater than lowest MIC among three control compounds, but lower than highest MIC among three control compounds; C = greater than MIC of all three control compounds. Conditions: Table 7; class vs MICs of sancycline, minocycline, tigecycline. On the procedure:
as §1, §2, §3
In the case of `CC(C)[C@H]1C(=O)Nc2c(O)c3c(c(F)c2CN1C)C[C@H]1C[C@H]2[C@H](N(C)C)C(O)=C(C(N)=O)C(=O)[C@@]2(O)C(O)=C1C3=O` [Compound 401], the “MIC KP457” value is on record as “C”. As for `CN(C)[C@@H]1C(O)=C(C(N)=O)C(=O)[C@@]2(O)C(O)=C3C(=O)c4c(O)c5c(c(F)c4C[C@H]3C[C@@H]12)CN(C)C(C)(C)C(=O)N5` [Compound 402], the “MIC KP457” value is “C”.

The next experiment has as its system Pseudomonas aeruginosa PA111 (ATCC 27853). Described as above. The arrangement: key: A = lower than or equal to lowest MIC among three control compounds; B = greater than lowest MIC among three control compounds, but lower than highest MIC among three control compounds; C = greater than MIC of all three control compounds. The note with it: class vs MICs of sancycline, minocycline, tigecycline. On the procedure: as §1, §2, §3
In the case of `CN(C)[C@@H]1C(O)=C(C(N)=O)C(=O)[C@@]2(O)C(O)=C3C(=O)c4c(O)c5c(c(F)c4C[C@H]3C[C@@H]12)CCN(CC(C)(C)C)C5` [Compound 201], the “MIC PA111 27853” value is “B”. Same read-out and setting: then `CN(C)[C@@H]1C(O)=C(C(N)=O)C(=O)[C@@]2(O)C(O)=C3C(=O)c4c(O)c5c(c(F)c4C[C@H]3C[C@@H]12)CCN(C1CCCC1)C5` [Compound 202], with “B”.
